# The campaign covered roughly 220,000 compounds. About 5,700 (2.6%) were called active. This list was built around the results that the source calls inconclusive (neither active nor inactive); the mix of calls is not that of the screen. The call rests on the fitted dose curve; in most records, active means well fitted inhibition curve with a large enough effect; inconclusive means small, poorly fitted or top-dose-only effect; inactive means no such curve, though single readings can be large or run the other way. Where the call is inconclusive, the potency comes from a doubtful curve fit.
# Molecular target: Lysine-specific demethylase 5B (Homo sapiens) (UniProt Q9UGL1)
# Chain of UniProt Q9UGL1 (Q9UGL1 whole entry, looked up): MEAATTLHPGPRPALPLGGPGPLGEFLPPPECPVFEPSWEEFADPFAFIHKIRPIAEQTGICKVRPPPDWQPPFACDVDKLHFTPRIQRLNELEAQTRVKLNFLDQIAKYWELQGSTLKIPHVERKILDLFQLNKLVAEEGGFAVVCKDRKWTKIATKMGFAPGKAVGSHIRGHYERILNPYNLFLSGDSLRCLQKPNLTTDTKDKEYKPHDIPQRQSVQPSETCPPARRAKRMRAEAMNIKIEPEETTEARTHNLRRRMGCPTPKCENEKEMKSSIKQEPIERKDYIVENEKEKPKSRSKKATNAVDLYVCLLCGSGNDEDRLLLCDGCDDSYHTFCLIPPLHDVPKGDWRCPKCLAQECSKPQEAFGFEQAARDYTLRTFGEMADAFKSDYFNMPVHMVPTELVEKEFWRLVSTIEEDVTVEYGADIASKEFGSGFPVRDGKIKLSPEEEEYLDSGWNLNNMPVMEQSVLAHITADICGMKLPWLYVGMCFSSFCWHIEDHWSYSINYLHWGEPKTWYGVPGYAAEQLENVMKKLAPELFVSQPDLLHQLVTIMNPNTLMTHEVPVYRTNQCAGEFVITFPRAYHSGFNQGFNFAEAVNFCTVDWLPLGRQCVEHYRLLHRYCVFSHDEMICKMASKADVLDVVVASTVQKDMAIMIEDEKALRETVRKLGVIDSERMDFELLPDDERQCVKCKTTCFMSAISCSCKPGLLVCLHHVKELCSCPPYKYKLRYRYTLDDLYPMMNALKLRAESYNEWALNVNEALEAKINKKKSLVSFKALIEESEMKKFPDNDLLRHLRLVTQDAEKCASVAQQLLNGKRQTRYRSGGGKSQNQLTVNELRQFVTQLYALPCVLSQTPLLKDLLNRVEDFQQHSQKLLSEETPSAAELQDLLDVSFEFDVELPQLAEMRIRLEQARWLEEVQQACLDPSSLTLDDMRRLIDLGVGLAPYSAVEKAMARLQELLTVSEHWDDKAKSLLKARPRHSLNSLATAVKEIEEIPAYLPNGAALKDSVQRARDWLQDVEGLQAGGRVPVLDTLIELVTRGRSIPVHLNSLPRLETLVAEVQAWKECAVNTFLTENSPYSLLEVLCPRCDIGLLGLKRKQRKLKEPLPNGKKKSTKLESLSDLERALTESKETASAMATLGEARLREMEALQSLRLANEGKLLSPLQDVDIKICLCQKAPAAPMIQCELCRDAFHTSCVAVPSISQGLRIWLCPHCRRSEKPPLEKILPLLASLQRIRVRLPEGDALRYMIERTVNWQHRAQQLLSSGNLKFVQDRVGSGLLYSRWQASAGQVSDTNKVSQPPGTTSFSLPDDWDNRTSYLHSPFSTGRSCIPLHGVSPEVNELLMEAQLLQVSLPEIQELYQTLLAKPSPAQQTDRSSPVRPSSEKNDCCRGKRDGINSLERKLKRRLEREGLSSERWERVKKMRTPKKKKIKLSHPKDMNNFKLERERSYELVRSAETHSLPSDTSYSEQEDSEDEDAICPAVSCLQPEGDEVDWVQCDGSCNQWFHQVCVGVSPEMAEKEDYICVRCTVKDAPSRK
# Assay: Primary screen for KDM5B Histone Demethylases FDH-coupled qHTS; further: nearly all actives have a fitted effect of over 70% in size
# Details: FDH-coupled NADH fluorescence (FDH is formaldehyde dehydrogenase); series mostly up to 57.7 µM
# How it was run: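 Compound dilutions met 200 nM (final) KDM5BΔAP for 10 min at room temperature before substrate addition. The substrate mix held 12.5 µM H3K4me3 with cofactors 25 µM α-ketoglutarate and 50 µM Fe²⁺. NADH signal gain over 30 min defined activity.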
# Potency means the concentration at half of the fitted maximal effect; tags describe the fitted curve by direction and shape.
row,Compound,Potency
1,COc1ccc(C(=O)OCc2ccccc2C#N)c(OC)c1,inactive
2,Cc1ccc(Nc2sc(C(=O)c3ccccc3)c(N)c2C(N)=O)cc1,"inconclusive: 25.1 µM [inhibitor, single point]"
3,O=C(NCc1cccs1)c1ccc2c(c1)OCCN(c1ccccc1)C2,"inconclusive: 31.6 µM [inhibitor, single point]"
4,COc1cc2c(cc1CN1CCn3nc(C(O)CO)cc3C1)OCCO2 (stereo not given),"inconclusive: 22.4 µM [inhibitor, single point]"
5,CC1CCN(C(=O)c2nn(C)c(=O)c3ccccc23)c2ccccc2S1 (stereo not given),inactive
6,CCOC(=O)C1=C(CN2CCN(c3ccccn3)CC2)NC(=O)NC1c1cccc(OC)c1OC (stereo not given),inactive
7,CC(C)CNc1ccc2c(n1)C(C)(C(=O)N1CCC1)CN(Cc1ccccc1)C2 (stereo not given),active: 28.2 µM
8,CC(=O)c1ccc(NC(=O)O[C@@H]2CO[C@H]3[C@@H]2OC[C@@H]3Nc2nccc(-c3ccco3)n2)cc1,"inconclusive: 22.4 µM [inhibitor, partial curve, poor fit]"
9,Cc1cnc(NC(=O)Nc2ccccc2)c(C)n1,"inconclusive: 28.2 µM [inhibitor, single point]"
10,COc1cccc(CN2CCNC(=O)C2CC(=O)N2CCC(O)CC2)c1OC (stereo not given),"inconclusive: 25.1 µM [inhibitor, single point]"
11,COc1ccc(-c2nc(CNS(=O)(=O)c3cccc(F)c3)cs2)cc1,"inconclusive: 17.8 µM [inhibitor, partial curve, poor fit]"
12,COc1cc(C(=O)N2N=C(C)CC2(O)C(F)(F)F)ccc1OC(F)F (stereo not given),inactive
13,CC[n+]1c(NCc2cc(Br)cc(Br)c2[O-])[nH]c2ccccc21,inactive
14,O=C(NCCC1=CCCCC1)C1CC(=O)N(c2n[nH]c3cccc(F)c23)C1 (stereo not given),"inconclusive: 3.16 µM [inhibitor, partial curve, poor fit]"
15,CCOC(=O)C1C(=O)C=C(/C=C/c2ccco2)CC1c1ccccc1 (stereo not given),"inconclusive: 20 µM [inhibitor, single point]"
16,Cc1ccc(NC(=O)c2cc3n(n2)CC(c2ccc(Cl)cc2)OC3)cc1F (stereo not given),active: 28.2 µM
17,CCn1cc(-c2cc(-c3ccccc3OC)nc3c(C)noc23)cn1,"inconclusive: 35.5 µM [inhibitor, partial curve, poor fit]"
18,COc1ccc(-c2nc(CCNC(=O)c3ccc(Br)o3)cs2)cc1,"inconclusive: 25.1 µM [inhibitor, partial curve, poor fit]"
19,CCc1ccccc1NC(=O)Cn1c(SCc2ccc(F)cc2)nc2ccncc21,"inconclusive: 1.41 µM [inhibitor, partial curve, poor fit]"
20,CCc1cccc(CC)c1NC(=O)CCS(=O)(=O)c1ccc2c(c1)CCN2C(C)=O,"inconclusive: 28.2 µM [inhibitor, single point]"
21,CCOc1cc(=O)n2c(c1C(=O)Nc1ccc3c(c1)OCO3)CCCC2,inactive
22,Cc1c(CC(=O)NCCCCCC(=O)O)c(=O)oc2cc3c(cc12)CCC(C)(C)O3,"inconclusive: 28.2 µM [inhibitor, partial curve, poor fit]"

row,Compound,Potency
1,Cn1ncc(N2CCC(CNC(=O)c3cccc(-c4ncc[nH]4)c3)C2)cc1=O (stereo not given),"inconclusive: 20 µM [inhibitor, partial curve]"
2,COc1cc(-c2nc3ccc(Cl)cn3c2Nc2ccccc2)cc(OC)c1O,"inconclusive: 39.8 µM [inhibitor, partial curve, poor fit]"
3,CCOC(=O)c1ccc(N2C(=O)c3n[nH]c(-c4ccco4)c3C2c2cccc(O)c2)cc1 (stereo not given),"inconclusive: 14.1 µM [inhibitor, partial curve, poor fit]"
4,COC(=O)c1ccc2nc(C[C@@H]3C[C@@H](C(C)C)[C@H](CNC(=O)CCC(=O)O)C=C3C)[nH]c2c1,"inconclusive: 25.1 µM [inhibitor, single point]"
5,O=C(Nc1ccc(Cl)cc1)NC1CCN(c2nc3ncccc3o2)CC1,inactive
6,O=C1/C(=C/c2cccc(F)c2)CSc2ccc(F)cc21,"inconclusive: 12.6 µM [inhibitor, partial curve, poor fit]"
7,COc1cccc(-c2cc3c(=O)n(CCNC(=O)c4nn(C)c5ccccc45)ccn3n2)c1,"inconclusive: 39.8 µM [inhibitor, single point]"
8,CC(=O)Nc1ccc(N/C=C(\C#N)c2nc(C3CC3)cs2)cc1,inactive
9,O=C(c1nn(Cc2ccccc2)c(=O)c2ccccc12)N1CCCSc2ccccc21,inactive
10,CC(=O)Nc1ccccc1-c1nccc2c(=O)cc(N(C)C3CCOCC3)oc12,active: 35.5 µM
11,CC(NC(=O)c1ccc2c(c1)sc1nc(-c3ccccc3)cn12)C12CC3CC(CC(C3)C1)C2 (stereo not given),"inconclusive: 15.8 µM [inhibitor, partial curve, poor fit]"
12,N#C/C(=C/c1cccc(OCc2ccccc2)c1)c1nc2ccccc2[nH]1,"inconclusive: 8.91 µM [inhibitor, partial curve, poor fit]"
13,Cc1cc(NC(=O)CNc2cc(S(=O)(=O)N3CCOCC3)ccc2N2CCCC2)no1,inactive
14,COC(=O)c1ccc(COC(=O)c2ccc(Cl)c(Cl)c2)cc1,inactive
15,CCCc1nc(-c2ccc(-c3ccc(Cl)cc3)nc2OC)no1,"inconclusive: 1.78 µM [inhibitor, partial curve, poor fit]"
16,CSC1=N/C(=C\c2ccc3ccccc3c2)C(=O)S1,inactive
17,CCCCN(CC)CCCNC(=O)Cn1ncc2c3ccccc3n(Cc3ccc(F)cc3)c2c1=O,"inconclusive: 39.8 µM [inhibitor, single point]"
18,CN1CCN(c2ccc3ncn(-c4cccnc4)c(=O)c3n2)CC1,active: 35.5 µM
19,Cc1cccc(OCC2(CNC(=O)c3cccnc3)C[C@@H](O)[C@@H](O)C2)n1 (stereo not given in full),"inconclusive: 31.6 µM [inhibitor, partial curve, poor fit]"
20,COc1ccc(N2C(=O)C3(CCCCC3)C2C(=O)NCCN2CCc3ccccc3C2)cc1 (stereo not given),active: 25.1 µM
21,C=CCNC(=O)CNC(=O)NCc1ccc(F)cc1,inactive
22,COCC(C)Nc1ncnc2c1cnn2-c1ccc(C)c(C)c1 (stereo not given),"inconclusive: 31.6 µM [inhibitor, partial curve, poor fit]"

row,Compound,Potency
1,COc1ccccc1N1CCN([C@@H]2[C@H](O)[C@H](CO)O[C@@H]2CNC2CCCCC2)CC1,inactive
2,O=C(c1ccc(F)c(Cl)c1)N1CCN(c2cc(-c3cccs3)[nH]n2)CC1,"inconclusive: 35.5 µM [inhibitor, partial curve, poor fit]"
3,CCOC(=O)c1c(C)[nH]c(C(=O)CN2CCN(CC)CC2)c1C,"inconclusive: 10 µM [inhibitor, partial curve, poor fit]"
4,COc1ccc(-n2nc(C(=O)NCc3ccc(F)cc3Cl)c3c4ccccc4n(C)c3c2=O)cc1Cl,inactive
5,O=C(CC1(O)C(=O)N(C/C=C/c2ccccc2)c2ccccc21)c1ccccc1 (stereo not given),inactive
6,Clc1ccc(Nc2c(-c3ccccc3Cl)nc3ccc(Cl)cn23)cc1,"inconclusive: 31.6 µM [inhibitor, partial curve, poor fit]"
7,COc1ccc(C)cc1NC(=O)c1cc(S(=O)(=O)N2CCN(c3cccc(C)c3C)CC2)ccc1F,"inconclusive: 1.26 µM [inhibitor, partial curve, poor fit]"
8,COc1ccc(C(=O)NC2CCN(c3cc(-c4ccc(OC)cc4)[nH]n3)CC2)cc1,"inconclusive: 14.1 µM [inhibitor, partial curve, poor fit]"
9,C=CCN(C)C(=O)[C@@H](C)C1CC[C@@]2(C)Cc3sc(NCCCC)nc3[C@@H](C)[C@@H]2[C@H]1O (stereo not given in full),active: 35.5 µM
10,Cc1nn(C)c2c1c(-c1ccccc1)cc(=O)n2CC(=O)NC(C)C,"inconclusive: 28.2 µM [inhibitor, partial curve, poor fit]"
11,Cc1ccc(NC(=O)c2ccc(S(=O)(=O)N3CCOCC3)cc2)cc1,"inconclusive: 15.8 µM [inhibitor, partial curve, poor fit]"
12,COc1cccc(S(=O)(=O)N2C[C@@H](F)C[C@H]2C(=O)N2CCc3ccccc3C2)c1,"inconclusive: 15.8 µM [inhibitor, partial curve]"
13,COc1ccc(CCNCc2ccc3c(c2)n(C)c(=O)n3C)cc1OC,"inconclusive: 25.1 µM [inhibitor, partial curve, poor fit]"
14,COC(=O)/C(C#N)=C\c1cc(OC)c(OC)cc1Br,inactive
15,CN1[C@@H](CCC(=O)NCc2cccs2)CNC(=O)[C@@H]2[C@H]1CCN2Cc1ccc(S(C)(=O)=O)cc1,"inconclusive: 22.4 µM [inhibitor, partial curve]"
16,CC1=C(C(=O)N2CCOCC2)C(c2ccc(F)cc2)C2=C(CCCC2=O)N1 (stereo not given),"inconclusive: 39.8 µM [inhibitor, single point]"
17,Cc1ccc(-c2nc(N3CCCC(C)C3)c3ccccc3n2)cc1 (stereo not given),"inconclusive: 35.5 µM [inhibitor, partial curve, poor fit]"
18,CC(C)CNC(=O)COC(=O)c1cc(-c2ccco2)nc2ccccc12,"inconclusive: 39.8 µM [inhibitor, single point]"
19,CC(C)(C)CN1CCCC12Cc1ccccc1CNC2=O (stereo not given),"inconclusive: 100 µM [inhibitor, partial curve]"
20,Cc1ccc(C(=O)Nc2cccc3cnccc23)cc1S(=O)(=O)N1CCCC1,inactive
21,CCc1cccc(NC(=O)COC(=O)c2cc(C)nc3ccccc23)c1,inactive
